# Values joined by “and” are separate entries in the source; they are usually repeats but may differ in a detail not shown here. Equal values may be shown once. The shares of active, inactive and inconclusive entries below differ from those in the screen. For some of these results: Potencies of inconclusive entries are doubtful fits and often do not repeat. Some compounds were tested as several samples or in several runs, with calls that do not always agree. Active and inactive are the calls of the source. The call rests on the fitted dose curve; in most records, active means well fitted curve in the direction sought with a large enough effect in the repeat runs; inconclusive means weak or mixed curves; inactive means no such curve, though single readings can be large; an effect the other way counts as inactive or inconclusive. *1 amine or outer side, *2 acyl side, *3 side chain or, on linkers, in order; H or OH if unused. Where a SMILES comes first, the peptide text is derived from it. Bridges are numbered along the chain shown (N, C = ends). Roman numbers before positions name the chains, in order. [ ]: non-standard residue; d: D form. Actinocin(9to1) = Cc1c2oc3c(C)ccc(C(=O)[*:1])c3nc-2c(C(=O)[*:2])c(N)c1=O; NMeV = CN[C@H](C(=O)O)C(C)C; Sar = CNCC(=O)O
# Legend:
# [1] = Human pregnane X receptor (PXR) small molecule agonists, qHTS cell viability counter screen (AID 1346977); further: nearly all actives have a fitted effect of over 50% in size; further: potency means the concentration at half of the fitted maximal effect
# Outline: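 Cytotoxicity counter screen run in the same wells as the PXR luciferase assay, using PXR-Luc HepG2 cells in charcoal-stripped serum medium. Viability: CellTiter-Fluor fluorescence after 24hr compound treatment.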
# [2] = Caspase-3/7 induction in CHO-K1 cells by small molecules, qHTS cell viability counter screen (AID 1346979); further: potency means the concentration at half of the fitted maximal effect; nearly all actives have a fitted effect of over 35% in size
# Outline: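 Cytotoxicity counter screen run in parallel with the caspase-3/7 assay: CHO-K1 cells, 16hr compound treatment at 37C, then CellTiter-Fluor for 1hr before fluorescence reading.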
# [3] = Caspase-3/7 induction in CHO-K1 cells by small molecules, qHTS assay (AID 1346980); further: potency means the concentration at half of the fitted maximal effect; nearly all actives have a fitted effect of over 15% in size
# Outline: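 Wild-type CHO-K1 cells exposed to compounds for 17hr at 37 C, 5% CO2. Caspase-3/7 activity then measured by Caspase-Glo 3/7 luminescence after 30min at room temperature.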
# [4] = Caspase-3/7 induction in HepG2 cells by small molecules, qHTS cell viability counter screen (AID 1346981); further: potency means the concentration at half of the fitted maximal effect; nearly all actives have a fitted effect of over 30% in size
# Outline: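 After a 5-hr attachment period at 37 C and 5% CO2, wild-type HepG2 cells received compounds in DMSO. Sixteen hours later CellTiter-Fluor was dispensed and the fluorescent signal quantified after a further hour.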
# [5] = target: Nuclear receptor subfamily 1 group I member 2 (Rattus norvegicus) (UniProt Q9R1A7); assay: Rat pregnane X receptor (rPXR) activation by small molecules, qHTS assay (AID 1346983); conditions: rPXR luciferase reporter cells, One-Glo luminescence, 24 h; max activation: stronger effect = higher value; further: on the % scale 0 is the no-effect control and ±100 the full control effect; nearly all actives have a fitted effect of over 20% in size
# Outline: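 Cell-based rPXR activation assay: rPXR cells, 2,000 per well, rested 5hr at 37 C, then exposed to compounds in DMSO for 24 hr at 37 C. Luciferase activity read by One-Glo luminescence after 30 min at room temperature.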
# [6] = target: Cytochrome P450 2C19 (Homo sapiens) (UniProt P33261); assay: Cytochrome P450 Family 2 Subfamily C Member 19 (CYP2C19) small molecule antagonists: luciferase reporter qHTS assay (AID 1671197); further: potency means the concentration at half of the fitted maximal effect; nearly all actives have a fitted effect of over 65% in size
# Outline: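 Enzyme-substrate mix with proluciferin substrate (P450-Glo CYP2C19 system) preincubated with compounds 10 min at room temperature; NADPH regeneration solution added, 37C for 1 h; detection reagent stops reaction, luminescence read after 20 min. Ketoconazole positive control.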
# [7] = Caspase-3/7 induction in HepG2 cells by small molecules, qHTS assay (AID 1346978); further: potency means the concentration at half of the fitted maximal effect; nearly all actives have a fitted effect of over 15% in size
# Outline: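 Wild-type HepG2 cells, 2,000/well, settled 5 hr at 37 C and 5% CO2, then compound-treated for 17 hr; caspase-3/7 activity read by luminescent Caspase-Glo 3/7 after 30 min at room temperature.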
# [8] = target: Nuclear receptor subfamily 1 group I member 2 (Homo sapiens) (UniProt O75469); assay: Human pregnane X receptor (PXR) small molecule agonists, qHTS assay (AID 1346982); further: potency means the concentration at half of the fitted maximal effect; nearly all actives have a fitted effect of over 35% in size
# Outline: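 Tox21 qHTS; PXR-Luc HepG2; compounds pinned from DMSO; 24 hr, 37 C; ONE-Glo luciferase detection, 30 min room temperature.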
# [9] = target: Cytochrome P450 2C9 (Homo sapiens) (UniProt P11712); assay: Cytochrome P450 Family 2 Subfamily C Member 9 (CYP2C9) small molecule antagonists: luciferase reporter qHTS assay (AID 1671198); further: potency means the concentration at half of the fitted maximal effect; nearly all actives have a fitted effect of over 50% in size
# Outline: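 P450-Glo proluciferin substrate with CYP2C9 enzyme; 10 min RT preincubation, then NADPH regeneration 1 h at 37C; luciferin detection reagent 20 min RT, luminescence in relative luminescence units.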
# [10] = target: Cytochrome P450 2D6 (Homo sapiens) (UniProt P10635); assay: Cytochrome P450 Family 2 Subfamily D Member 6 (CYP2D6) small molecule antagonists: luciferase reporter qHTS assay (AID 1671196); further: nearly all actives have a fitted effect of over 50% in size; further: potency means the concentration at half of the fitted maximal effect
# Outline: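 Room-temperature luminescent CYP2D6 activity assay: compound preincubated 10 min with enzyme–substrate mix, NADPH-initiated reaction 1 h, detection reagent 20 min before reading.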
# [11] = target: Cytochrome P450 3A4 (Homo sapiens) (UniProt P08684); assay: Cytochrome P450 Family 3 Subfamily A Member 4 (CYP3A4) small molecule antagonists: luciferase reporter qHTS assay (AID 1671201); further: potency means the concentration at half of the fitted maximal effect; nearly all actives have a fitted effect of over 50% in size
# Outline: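 qHTS, 1536-well. CYP3A4 + proluciferin substrate, cpd 10 min RT → NADPH regen 1 h RT → detection reagent 20 min → luminescence (RLU). Ketoconazole positive control.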
# [12] = target: Cytochrome P450 1A2 (Homo sapiens) (UniProt P05177); assay: Cytochrome P450 Family 1 Subfamily A Member 2 (CYP1A2) small molecule antagonists: luciferase reporter qHTS assay (AID 1671199)
# Outline: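 Room-temperature CYP1A2 reaction with proluciferin substrate: compounds added from DMSO, 10 min preincubation, NADPH regeneration for 1 h. Luciferin detection reagent then added; luminescence recorded as RLU.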
# [13] = target: Voltage-gated inwardly rectifying potassium channel KCNH2 (Homo sapiens) (UniProt Q12809); assay: Human Ether-a-go-go-Related Gene (hERG) channel small molecule antagonists: fluorescence cell-based qHTS assay (AID 1671200)
# Outline: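 Fluorescence at 540 nm emission (480 nm excitation) was recorded kinetically for 2 min at 1-second intervals once the thallium-containing stimulus reached cells previously loaded with FluxOR II dye.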
# Tags describe the fitted curve by direction and shape.
# UniProt P11712, sequence (P11712 whole entry, looked up): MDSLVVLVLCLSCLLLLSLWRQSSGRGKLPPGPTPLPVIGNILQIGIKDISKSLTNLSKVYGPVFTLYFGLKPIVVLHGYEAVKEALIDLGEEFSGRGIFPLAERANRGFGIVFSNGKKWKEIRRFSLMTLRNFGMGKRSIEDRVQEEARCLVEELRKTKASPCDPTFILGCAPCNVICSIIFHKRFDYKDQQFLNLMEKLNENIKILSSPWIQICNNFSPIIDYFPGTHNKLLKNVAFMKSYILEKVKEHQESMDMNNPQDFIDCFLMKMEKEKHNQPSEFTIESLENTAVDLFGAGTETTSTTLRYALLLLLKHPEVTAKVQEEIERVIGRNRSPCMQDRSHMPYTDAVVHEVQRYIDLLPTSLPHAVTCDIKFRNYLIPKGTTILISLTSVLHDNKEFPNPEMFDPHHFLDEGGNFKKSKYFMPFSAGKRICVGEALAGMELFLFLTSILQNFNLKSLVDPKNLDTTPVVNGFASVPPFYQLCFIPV
# UniProt P33261, sequence (P33261 whole entry, looked up): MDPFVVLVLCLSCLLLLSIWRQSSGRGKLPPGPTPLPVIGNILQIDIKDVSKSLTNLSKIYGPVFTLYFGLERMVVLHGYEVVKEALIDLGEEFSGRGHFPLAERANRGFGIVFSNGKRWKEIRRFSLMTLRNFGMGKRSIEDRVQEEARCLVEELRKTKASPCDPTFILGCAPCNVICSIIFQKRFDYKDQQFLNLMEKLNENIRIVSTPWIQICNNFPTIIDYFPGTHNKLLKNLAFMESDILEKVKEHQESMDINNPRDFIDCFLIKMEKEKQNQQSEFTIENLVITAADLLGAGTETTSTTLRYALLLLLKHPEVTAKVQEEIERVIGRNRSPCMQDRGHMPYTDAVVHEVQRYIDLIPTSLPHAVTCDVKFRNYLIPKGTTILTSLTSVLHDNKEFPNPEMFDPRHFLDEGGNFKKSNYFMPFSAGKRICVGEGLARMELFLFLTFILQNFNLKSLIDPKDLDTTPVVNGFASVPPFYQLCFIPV
# UniProt P08684, sequence (P08684 whole entry, looked up): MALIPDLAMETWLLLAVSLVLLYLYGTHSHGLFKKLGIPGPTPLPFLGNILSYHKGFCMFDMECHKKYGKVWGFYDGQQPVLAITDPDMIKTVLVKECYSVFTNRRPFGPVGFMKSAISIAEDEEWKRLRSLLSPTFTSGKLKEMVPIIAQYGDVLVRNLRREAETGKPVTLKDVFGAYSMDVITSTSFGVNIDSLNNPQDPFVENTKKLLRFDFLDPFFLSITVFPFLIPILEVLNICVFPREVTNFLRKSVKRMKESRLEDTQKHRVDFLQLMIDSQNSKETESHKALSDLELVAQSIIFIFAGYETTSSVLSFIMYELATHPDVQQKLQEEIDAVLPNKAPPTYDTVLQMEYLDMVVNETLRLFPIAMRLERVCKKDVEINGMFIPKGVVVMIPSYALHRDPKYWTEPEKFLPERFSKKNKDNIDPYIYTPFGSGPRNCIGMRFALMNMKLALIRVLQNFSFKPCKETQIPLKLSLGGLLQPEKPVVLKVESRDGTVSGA
# UniProt P05177, sequence (P05177 whole entry, looked up): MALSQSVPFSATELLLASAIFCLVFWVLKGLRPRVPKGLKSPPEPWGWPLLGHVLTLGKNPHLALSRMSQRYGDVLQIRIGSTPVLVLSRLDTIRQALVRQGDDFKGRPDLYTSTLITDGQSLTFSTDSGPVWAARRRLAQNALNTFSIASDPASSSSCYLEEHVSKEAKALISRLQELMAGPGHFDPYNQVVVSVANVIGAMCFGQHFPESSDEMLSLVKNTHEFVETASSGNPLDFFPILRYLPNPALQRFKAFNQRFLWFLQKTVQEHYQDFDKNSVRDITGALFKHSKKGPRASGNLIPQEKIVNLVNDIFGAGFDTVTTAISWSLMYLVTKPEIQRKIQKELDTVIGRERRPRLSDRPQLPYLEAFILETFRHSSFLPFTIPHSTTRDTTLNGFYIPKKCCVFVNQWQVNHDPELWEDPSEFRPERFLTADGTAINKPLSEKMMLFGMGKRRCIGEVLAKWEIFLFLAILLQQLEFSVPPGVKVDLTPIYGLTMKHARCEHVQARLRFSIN
# UniProt O75469, sequence (O75469 whole entry, looked up): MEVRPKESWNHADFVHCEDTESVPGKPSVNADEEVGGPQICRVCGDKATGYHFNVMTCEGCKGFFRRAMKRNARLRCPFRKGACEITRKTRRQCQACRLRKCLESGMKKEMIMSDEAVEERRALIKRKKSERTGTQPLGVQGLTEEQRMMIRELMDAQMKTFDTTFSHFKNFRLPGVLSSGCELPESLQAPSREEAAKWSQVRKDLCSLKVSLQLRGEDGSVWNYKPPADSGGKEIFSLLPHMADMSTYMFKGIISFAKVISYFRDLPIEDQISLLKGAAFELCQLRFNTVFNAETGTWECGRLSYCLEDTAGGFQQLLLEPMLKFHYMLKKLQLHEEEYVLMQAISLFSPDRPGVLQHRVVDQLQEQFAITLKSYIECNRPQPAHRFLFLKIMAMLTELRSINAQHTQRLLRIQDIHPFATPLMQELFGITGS
# UniProt Q12809, sequence (Q12809 whole entry, looked up): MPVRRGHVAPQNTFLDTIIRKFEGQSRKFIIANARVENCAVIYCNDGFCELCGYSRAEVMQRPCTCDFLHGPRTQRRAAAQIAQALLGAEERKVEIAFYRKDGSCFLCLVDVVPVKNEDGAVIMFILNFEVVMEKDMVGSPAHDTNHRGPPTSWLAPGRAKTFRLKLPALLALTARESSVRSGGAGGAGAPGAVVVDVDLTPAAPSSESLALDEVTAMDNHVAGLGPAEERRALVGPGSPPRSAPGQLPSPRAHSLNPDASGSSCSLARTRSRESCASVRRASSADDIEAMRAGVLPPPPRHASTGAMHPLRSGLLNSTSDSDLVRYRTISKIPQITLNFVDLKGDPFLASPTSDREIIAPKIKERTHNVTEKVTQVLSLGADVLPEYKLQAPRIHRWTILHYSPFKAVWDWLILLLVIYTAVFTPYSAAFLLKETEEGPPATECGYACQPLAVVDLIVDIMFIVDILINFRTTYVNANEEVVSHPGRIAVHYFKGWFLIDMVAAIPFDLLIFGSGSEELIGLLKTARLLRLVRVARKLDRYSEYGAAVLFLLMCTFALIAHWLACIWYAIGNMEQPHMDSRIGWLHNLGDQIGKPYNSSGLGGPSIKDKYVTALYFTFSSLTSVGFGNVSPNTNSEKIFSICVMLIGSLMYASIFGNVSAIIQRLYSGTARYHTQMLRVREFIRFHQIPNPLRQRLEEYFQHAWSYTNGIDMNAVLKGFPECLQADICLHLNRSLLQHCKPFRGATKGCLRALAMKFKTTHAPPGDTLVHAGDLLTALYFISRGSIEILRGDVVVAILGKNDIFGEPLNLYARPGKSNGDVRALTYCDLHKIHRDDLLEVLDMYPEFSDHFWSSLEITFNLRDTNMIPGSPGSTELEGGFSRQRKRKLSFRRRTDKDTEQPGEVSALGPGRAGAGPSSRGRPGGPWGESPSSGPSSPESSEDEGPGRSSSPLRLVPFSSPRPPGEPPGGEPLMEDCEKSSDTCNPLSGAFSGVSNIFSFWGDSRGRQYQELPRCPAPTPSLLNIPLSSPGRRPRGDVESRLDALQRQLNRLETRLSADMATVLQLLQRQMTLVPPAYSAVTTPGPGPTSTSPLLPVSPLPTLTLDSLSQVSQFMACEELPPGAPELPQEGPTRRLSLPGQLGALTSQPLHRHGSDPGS
# UniProt P10635, sequence (P10635 whole entry, looked up): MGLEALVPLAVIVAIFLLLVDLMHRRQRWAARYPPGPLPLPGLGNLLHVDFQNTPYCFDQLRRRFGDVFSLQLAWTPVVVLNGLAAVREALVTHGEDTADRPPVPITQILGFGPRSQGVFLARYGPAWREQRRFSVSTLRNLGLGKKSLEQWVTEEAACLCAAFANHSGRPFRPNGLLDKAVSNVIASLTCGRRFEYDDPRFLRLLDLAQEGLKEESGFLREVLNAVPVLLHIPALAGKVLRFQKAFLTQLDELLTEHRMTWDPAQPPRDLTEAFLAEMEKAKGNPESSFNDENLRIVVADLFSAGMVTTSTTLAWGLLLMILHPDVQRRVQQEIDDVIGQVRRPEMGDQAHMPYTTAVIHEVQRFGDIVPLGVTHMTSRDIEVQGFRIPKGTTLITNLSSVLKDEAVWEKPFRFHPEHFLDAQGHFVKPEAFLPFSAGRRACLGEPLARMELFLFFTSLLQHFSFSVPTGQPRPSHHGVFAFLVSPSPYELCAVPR
# UniProt Q9R1A7, sequence (Q9R1A7 whole entry, looked up): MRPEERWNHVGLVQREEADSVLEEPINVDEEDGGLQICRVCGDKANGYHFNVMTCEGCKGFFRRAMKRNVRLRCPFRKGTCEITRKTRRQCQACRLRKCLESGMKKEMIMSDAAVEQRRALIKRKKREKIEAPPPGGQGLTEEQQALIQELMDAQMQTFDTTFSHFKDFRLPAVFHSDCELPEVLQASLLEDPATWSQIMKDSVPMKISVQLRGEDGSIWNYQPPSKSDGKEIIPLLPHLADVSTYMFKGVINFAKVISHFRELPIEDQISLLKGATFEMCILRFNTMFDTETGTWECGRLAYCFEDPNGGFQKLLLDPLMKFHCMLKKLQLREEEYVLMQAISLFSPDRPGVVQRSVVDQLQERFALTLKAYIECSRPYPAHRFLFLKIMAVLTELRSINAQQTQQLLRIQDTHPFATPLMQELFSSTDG
smiles,measurement,setting,value
CNCCC(Oc1ccc(C(F)(F)F)cc1)c1ccccc1 (stereo unspecified),Potency,[1],active: 24 µM and active: 26.6 µM
same,Potency,[2],active: 67.7 µM and active: 29.8 µM
same,Potency,[3],"inconclusive: 67.7 µM [activator, single point] and inconclusive: 33.5 µM [activator, single point]"
same,Potency,[4],"inconclusive: 33.5 µM [cytotoxic, single point]"
"Cc1c2oc3c(C)ccc(C(=O)N[C@@H]4C(=O)N[C@H](C(C)C)C(=O)N5CCC[C@H]5C(=O)N(C)CC(=O)N(C)[C@@H](C(C)C)C(=O)O[C@@H]4C)c3nc-2c(C(=O)N[C@@H]2C(=O)N[C@H](C(C)C)C(=O)N3CCC[C@H]3C(=O)N(C)CC(=O)N(C)[C@@H](C(C)C)C(=O)O[C@@H]2C)c(N)c1=O (I: T[dV]P[Sar][NMeV] / II: T[dV]P[Sar][NMeV]; ester I:1-I:C, II:1-II:C; linker I:N-II:N via Actinocin(9to1))",Potency,[1],active: 29.8 nM and active: 47.3 nM
same,Potency,[2],active: 375 nM and active: 188 nM
same,Potency,[3],active: 188 nM and active: 335 nM
same,max activation,[5],inconclusive: -17.4% [activator]
same,Potency,[6],"inconclusive: 38.8 µM [inhibitor, single point]"
N#CCCCC(C#N)CCC#N (stereo unspecified),Potency,[1],"inconclusive: 61.1 µM [rising, single point]"
CC(C)n1nc(-c2cc3cc(O)ccc3[nH]2)c2c(N)ncnc21,Potency,[1],"inconclusive: 0.668 µM [cytotoxic, full curve]"
same,Potency,[7],active: 29.8 µM
same,Potency,[3],"inconclusive: 23.7 µM [activator, partial curve]"
same,Potency,[8],active: 3.76 µM
same,Potency,[9],active: 2.45 µM
c1ccc2cc3c4ccccc4c4ccccc4c3cc2c1,Potency,[1],"inconclusive: 4.88 µM [cytotoxic, full curve]"
same,Potency,[7],active: 6.89 µM
same,Potency,[2],active: 27.4 µM
same,Potency,[10],inactive
same,Potency,[6],"inconclusive: 89.7 µM [inhibitor, single point]"
same,Potency,[11],"inconclusive: 20.1 µM [inhibitor, full curve]"
CC/C=C\C/C=C\C/C=C\CCCCCCCC(=O)O,Potency,[1],"inconclusive: 68.6 µM [cytotoxic, partial curve, poor fit]"
same,Potency,[2],active: 61.1 µM
same,Potency,[3],"inconclusive: 77 µM [activator, single point]"
same,Potency,[4],"inconclusive: 54.5 µM [cytotoxic, single point]"
same,Potency,[10],"inconclusive: 63.3 µM [inhibitor, partial curve, poor fit]"
same,Potency,[6],"inconclusive: 71 µM [inhibitor, single point]"
same,Potency,[9],active: 35.3 µM and active: 39.9 µM
same,Potency,[12],"inconclusive: 70.3 µM [inhibitor, partial curve, poor fit]"
CC1=C(Br)C(=O)C(Br)=C/C1=C(/c1ccccc1S(=O)(=O)O)c1cc(Br)c(O)c(Br)c1C,Potency,[1],active: 20.8 µM
same,Potency,[2],active: 18.6 µM
CCCCCCc1ccc(O)cc1O,Potency,[1],"inconclusive: 70.8 µM [cytotoxic] and inconclusive: 68.6 µM [cytotoxic, single point] and inactive"
same,Potency,[7],"inconclusive: 68.8 µM [activator, single point] and inconclusive: 61.1 µM [activator]"
same,Potency,[4],"inconclusive: 68.8 µM [cytotoxic, single point] and inconclusive: 54.5 µM [cytotoxic, single point]"
same,Potency,[8],inconclusive: 68.6 µM [activator]
same,Potency,[13],"inconclusive: 34.7 µM [inhibitor, partial curve]"
CCCCN(CCCC)c1ccc(C(=O)c2ccccc2C(=O)O)c(O)c1,Potency,[1],"inconclusive: 69.2 µM [cytotoxic, single point]"
same,Potency,[7],inconclusive: 69.2 µM [activator]
same,Potency,[2],"inconclusive: 69.2 µM [cytotoxic, single point]"
same,Potency,[3],"inconclusive: 69.2 µM [activator, single point]"
same,Potency,[4],"inconclusive: 69.2 µM [cytotoxic, single point]"
same,Potency,[6],"inconclusive: 90.2 µM [inhibitor, single point]"
same,Potency,[9],active: 6.39 µM
same,Potency,[12],active: 63.9 µM
same,Potency,[13],"inconclusive: 55.5 µM [inhibitor, single point]"
same,Potency,[11],"inconclusive: 101 µM [inhibitor, partial curve, poor fit]"
